# ± gives the standard deviation of the averaged measurements. The full ranking holds about 33,000 sequences; the median of “E-score (dimensionless, -0.5 to 0.5)” is about -0.049, and the highest 2% start at about 0.37. The list shows a part of the results.
# Tested on: T1, PmTbr T-box DNA-binding domain (GST fusion)
# T1 sequence: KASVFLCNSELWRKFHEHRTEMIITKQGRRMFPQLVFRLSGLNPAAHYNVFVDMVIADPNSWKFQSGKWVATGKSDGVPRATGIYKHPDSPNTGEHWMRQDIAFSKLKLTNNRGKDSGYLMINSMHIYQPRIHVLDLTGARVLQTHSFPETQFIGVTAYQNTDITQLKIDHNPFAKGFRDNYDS
# Assay: PBM E-score of 8-mer (E-score (dimensionless, -0.5 to 0.5)); Tbr is Tbrain of the sea star Patiria miniata (Pm) or the sea urchin Strongylocentrotus purpuratus (Sp); higher = stronger binding preference; most listed sequences are background and not binding sites
# Conditions: the construct has about 5 more residues each side
# Method: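 Universal protein-binding microarray (Agilent AMADID 016060, 60-bp probes with a 35-bp variable region) incubated with 200 nM GST-fused Patiria miniata Tbr T-box DNA-binding domain (residues 272-466) in PBS pH 7.5. Scored for every ungapped 8-mer (given with its reverse complement) by the Universal PBM Analysis Suite as E-score (modified Wilcoxon-Mann-Whitney enrichment, range -0.5 to 0.5; >0.45 counts as bound) and Z-score of median probe intensity. Two replicate arrays (datasets 1 and 2).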
# 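Note: 200 nM protein in PBS on universal arrays averaged over duplicate arrays.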
row,Sequence,PBM E-score of 8-mer
1,CCCTGATC,-0.11 ± 0.033
2,ACAGAACA,-0.118 ± 0.092
3,ACTCCGCA,0.0199 ± 0.0014
4,CCTGCTAC,0.133 ± 0.02
5,TAGGCGCA,0.0881 ± 0.02
6,CCATGGCA,0.0934 ± 0.1
7,CACAATCG,0.0995 ± 0.018
8,GCGGAGTA,-0.125 ± 0.0083
9,ACCCGGGA,0.0134 ± 0.038
10,GAAACAGC,-0.0449 ± 0.074
11,CCGCTAAC,0.169 ± 0.038
12,AGGTTACT,-0.15 ± 0.0084
13,CAATATCA,0.144 ± 0.04
14,GTCAGAAC,-0.103 ± 0.029
15,CAGCGGAA,-0.153 ± 0.011
16,GGAGTTAC,-0.0306 ± 0.046
17,GACGATTA,0.025 ± 0.011
18,CCGACCCG,-0.132 ± 0.035
19,GAAGACGC,0.0456 ± 0.057
20,CACCCCGG,0.334 ± 0.024
21,AATCACAC,0.462 ± 0.0075
22,GCTAAATA,0.209 ± 0.042
23,CTATCTTA,-0.149 ± 0.0076
24,CAAATGTA,-0.183 ± 0.063
25,CCGGGTGC,0.252 ± 0.017

row,Sequence,PBM E-score of 8-mer
1,CTCAACAG,0.00592 ± 0.036
2,ACCCCAGT,-0.138 ± 0.1
3,AGATGATG,-0.174 ± 0.0057
4,CAGGAAGG,-0.0473 ± 0.0084
5,CTTCCATA,-0.193 ± 0.024
6,CAGGTAGA,0.0483 ± 0.012
7,GTCGTTTA,-0.0502 ± 0.058
8,GGGGGGCA,-0.327 ± 0.0093
9,GGCCGTTA,-0.189 ± 0.0025
10,GGCTAGCC,-0.112 ± 0.018
11,AGTTAACG,0.0806 ± 0.066
12,ACGGGCTG,0.00145 ± 0.042
13,TGACCCCA,-0.119 ± 0.087
14,CAGTCTAA,-0.218 ± 0.021
15,TCGGTAGA,-0.0848 ± 0.035
16,AAAATCTT,-0.287 ± 0.032
17,AGAGGGAG,-0.101 ± 0.017
18,CTTAGACC,0.0398 ± 0.062
19,ACCGGCAC,0.159 ± 0.03
20,ACAGTGAG,0.155 ± 0.059
21,AATTACCT,0.0296 ± 0.054
22,CTTAGCTC,-0.162 ± 0.0032
23,GGGCATTA,-0.101 ± 0.025
24,CCTTCCAC,0.0992 ± 0.017
25,GCTCACTA,0.0272 ± 0.021

row,Sequence,PBM E-score of 8-mer
1,ACTTGTAC,-0.105 ± 0.037
2,CCTCTTCC,-0.253 ± 0.0039
3,ATGGTAGC,-0.00664 ± 0.012
4,GACGAACC,-0.183 ± 0.04
5,TACCCTCA,-0.0966 ± 0.0095
6,GCCCAGTA,-0.226 ± 0.038
7,AGGGGCTC,-0.163 ± 0.019
8,CCAGCGCA,-0.0605 ± 0.081
9,AAGGTACC,0.0276 ± 0.049
10,GTTACAAA,0.034 ± 0.079
11,CGCGGTTC,0.206 ± 0.0036
12,TAAGCGTA,-0.0955 ± 0.03
13,AGGAGGCG,0.3007 ± 0.00038
14,GAGGCACA,0.0374 ± 0.011
15,AGCCTGCA,-0.301 ± 0.0032
16,CTATATAG,0.149 ± 0.09
17,ATTGCCGA,0.0547 ± 0.071
18,AGAATGGA,-0.187 ± 0.03
19,CTTCCCCA,0.0352 ± 0.068
20,CCAATTTA,-0.104 ± 0.11
21,AACGCCTC,0.362 ± 0.007
22,CCAGTAAC,-0.0658 ± 0.066
23,CTAAAGTA,-0.0432 ± 0.053
24,GGTGTACA,0.0134 ± 0.02
25,ACCCGTAG,-0.0582 ± 0.021

row,Sequence,PBM E-score of 8-mer
1,ACAACCTC,0.157 ± 0.027
2,CGCTTATC,0.0947 ± 0.018
3,CAGGGGCG,0.179 ± 0.035
4,ATCGCAAG,0.18 ± 0.019
5,AACGACCT,-0.0518 ± 0.053
6,CTGTGTGA,0.298 ± 0.018
7,CATTGCGG,-0.0397 ± 0.028
8,GCGTGTGA,0.373 ± 0.016
9,TTCATGAA,-0.283 ± 0.076
10,CAGCGCGA,0.203 ± 0.029
11,CGCTACCG,0.138 ± 0.029
12,GGTCTCTA,-0.125 ± 0.011
13,AGCATAGC,-0.0299 ± 0.035
14,GGAGTAAC,-0.0933 ± 0.0021
15,AGCGATCA,0.0219 ± 0.084
16,GCATCCCA,-0.107 ± 0.015
17,GGTTGGTA,-0.0707 ± 0.01
18,AAAGCAGG,0.0888 ± 0.091
19,TGCCGGCA,-0.0434 ± 0.088
20,CATGGGGG,-0.277 ± 0.059
21,GCCCCGAA,-0.261 ± 0.038
22,CAGCTCTA,0.0297 ± 0.05
23,CTATGATA,-0.155 ± 0.024
24,AAGTTCCG,-0.0839 ± 0.022
25,GTGCAGGA,-0.066 ± 0.036

row,Sequence,PBM E-score of 8-mer
1,AAACGGGA,-0.228 ± 0.025
2,AAAAATCG,0.162 ± 0.073
3,AAGCTCCT,-0.239 ± 0.011
4,ACTTCTTA,-0.00926 ± 0.062
5,TACTGAGA,-0.28 ± 0.051
6,CTTGTGGC,0.0498 ± 0.0044
7,ATTATAAT,0.048 ± 0.097
8,CACTTAAC,0.304 ± 0.004
9,GTACGTTA,-0.0122 ± 0.038
10,ACCTCCGT,0.3 ± 0.02
11,CACGGCAC,0.185 ± 0.014
12,GGGTCTTA,-0.271 ± 0.011
13,ACAATCAG,-0.077 ± 0.011
14,ACGCCAGT,0.109 ± 0.02
15,ACCAACTC,-0.0968 ± 0.014
16,CCAGAAAC,-0.0362 ± 0.0098
17,CTTATACC,-0.173 ± 0.13
18,AGTCTAAA,-0.206 ± 0.045
19,CTTCCGAC,-0.0114 ± 0.006
20,GGGGCCCC,-0.373 ± 0.0082
21,GTTTCGTA,0.0798 ± 0.01
22,AAGTTGCA,0.0571 ± 0.086
23,AAGCGGCA,-0.101 ± 0.081
24,GAAGCAAA,-0.258 ± 0.058
25,AGTACGAT,-0.238 ± 0.038

row,Sequence,PBM E-score of 8-mer
1,CGGGGCGA,0.0995 ± 0.023
2,AACCCAAG,-0.126 ± 0.0083
3,CAGTAGGC,0.00485 ± 0.0087
4,TGTACGAA,-0.0368 ± 0.13
5,CCGCGCGA,0.226 ± 0.0095
6,GTTATATA,-0.0715 ± 0.037
7,CTCGAGAC,-0.0526 ± 0.004
8,ATCAACTC,0.0652 ± 0.025
9,CTATCGGC,0.0342 ± 0.0053
10,CGTTGTGC,0.11 ± 0.063
11,AAGGCGAC,0.245 ± 0.024
12,ACGGCAGT,-0.121 ± 0.086
13,CACACTCG,0.408 ± 0.011
14,CAGCTGAC,0.0103 ± 0.008
15,CACGTCGC,0.268 ± 0.018
16,GCAGGAGC,-0.124 ± 0.0015
17,ATCCACAA,-0.0348 ± 0.017
18,GAGATATA,-0.145 ± 0.0055
19,ATTCCTTC,-0.15 ± 0.1
20,AGTTGTGA,0.387 ± 0.017
21,AATACGGC,-0.0428 ± 0.11
22,ACGAATAC,-0.0576 ± 0.036
23,GGAAACAA,-0.209 ± 0.019
24,CCAAACAA,-0.0329 ± 0.0076
25,ACACCATG,0.36 ± 0.025

row,Sequence,PBM E-score of 8-mer
1,CCTTGTAA,-0.0975 ± 0.037
2,CCGCCCGC,-0.0385 ± 0.058
3,ATTATTGC,-0.118 ± 0.055
4,GATCAGAC,-0.23 ± 0.019
5,AAGCCTCG,-0.0234 ± 0.039
6,TAGATTAA,-0.0736 ± 0.046
7,CCCGGCTC,-0.29 ± 0.022
8,CCTTCGAA,0.0378 ± 0.023
9,CGAGCGTC,-0.138 ± 0.023
10,AGACTCTA,-0.267 ± 0.08
11,CCCCTGTA,-0.0841 ± 0.033
12,AACAATCC,-0.0388 ± 0.023
13,CAATCAAA,-0.0855 ± 0.024
14,ACACTAAT,0.162 ± 0.018
15,CGGCTGTC,0.0205 ± 0.07
16,ATGGATTA,-0.273 ± 0.04
17,ACATGGCT,-0.062 ± 0.043
18,AGTTGGTG,0.148 ± 0.0097
19,CCTCATAA,-0.0348 ± 0.046
20,ACAACCAC,0.127 ± 0.018
21,CCACCGGA,-0.209 ± 0.0098
22,GCGGCGAC,0.0452 ± 0.07

# — the supplement of paper PMC4166925
